Residue numbers refer to the chain shown, from its start. This is one part of the list.
T1: RBFOX1 RRM RbFoxmut (Fox-RRM*) (Homo sapiens, UniProt Q9NWB1 109-208, R118D;E147R;N151S;E152T)
T1 sequence: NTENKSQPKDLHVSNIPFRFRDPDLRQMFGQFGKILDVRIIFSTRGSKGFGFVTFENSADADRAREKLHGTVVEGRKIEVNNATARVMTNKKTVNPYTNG

B1: GCUCGAC (DNA:RNA)
RNA: GGGAGACCGGAAUUCAGAUUGUCCGCUCGACUUAAAUCCCGUCGUAGCCACCA
DNA 1: CAATCTGAATTCCGGTCTCCC
DNA 2: TGGTGGCTACGACGGGATT
B2: UCGGACC (DNA:RNA)
RNA: B1 RNA with G25U, U27G, C28G, G29A, A30C
DNA 1: CAATCTGAATTCCGGTCTCCC
DNA 2: TGGTGGCTACGACGGGATT
B3: ACUUACA (DNA:RNA)
RNA: B1 RNA with G25A, C28U, G29A, A30C, C31A
DNA 1: CAATCTGAATTCCGGTCTCCC
DNA 2: TGGTGGCTACGACGGGATT
B4: CUACCCU (DNA:RNA)
RNA: B1 RNA with G25C, C26U, U27A, G29C, A30C, C31U
DNA 1: CAATCTGAATTCCGGTCTCCC
DNA 2: TGGTGGCTACGACGGGATT
B5: CGGUUAC (DNA:RNA)
RNA: B1 RNA with G25C, C26G, U27G, C28U, G29U
DNA 1: CAATCTGAATTCCGGTCTCCC
DNA 2: TGGTGGCTACGACGGGATT
B6: GUAUUGC (DNA:RNA)
RNA: B1 RNA with C26U, U27A, C28U, G29U, A30G
DNA 1: CAATCTGAATTCCGGTCTCCC
DNA 2: TGGTGGCTACGACGGGATT
B7: GGCAUAG (DNA:RNA)
RNA: B1 RNA with C26G, U27C, C28A, G29U, C31G
DNA 1: CAATCTGAATTCCGGTCTCCC
DNA 2: TGGTGGCTACGACGGGATT
B8: GGACGAU (DNA:RNA)
RNA: B1 RNA with C26G, U27A, C31U
DNA 1: CAATCTGAATTCCGGTCTCCC
DNA 2: TGGTGGCTACGACGGGATT
B9: CGAGAGG (DNA:RNA)
RNA: GGGAGACCGGAAUUCAGAUUGUCCCGAGAGGUUAAAUCCCGUCGUAGCCACCA
DNA 1: CAATCTGAATTCCGGTCTCCC
DNA 2: TGGTGGCTACGACGGGATT
B10: CAAGUAC (DNA:RNA)
RNA: B9 RNA with G26A, A29U, G30A, G31C
DNA 1: CAATCTGAATTCCGGTCTCCC
DNA 2: TGGTGGCTACGACGGGATT
B11: GGGCCGA (DNA:RNA)
RNA: B9 RNA with C25G, A27G, G28C, A29C, G31A
DNA 1: CAATCTGAATTCCGGTCTCCC
DNA 2: TGGTGGCTACGACGGGATT
B12: GGAGACG (DNA:RNA)
RNA: B9 RNA with C25G, G30C
DNA 1: CAATCTGAATTCCGGTCTCCC
DNA 2: TGGTGGCTACGACGGGATT
B13: AAUCUCA (DNA:RNA)
RNA: B1 RNA with G25A, C26A, G29U, A30C, C31A
DNA 1: CAATCTGAATTCCGGTCTCCC
DNA 2: TGGTGGCTACGACGGGATT
B14: UCUCGCA (DNA:RNA)
RNA: B1 RNA with G25U, A30C, C31A
DNA 1: CAATCTGAATTCCGGTCTCCC
DNA 2: TGGTGGCTACGACGGGATT
B15: AACUGAC (DNA:RNA)
RNA: B1 RNA with G25A, C26A, U27C, C28U
DNA 1: CAATCTGAATTCCGGTCTCCC
DNA 2: TGGTGGCTACGACGGGATT
B16: CAAUCUG (DNA:RNA)
RNA: B9 RNA with G26A, G28U, A29C, G30U
DNA 1: CAATCTGAATTCCGGTCTCCC
DNA 2: TGGTGGCTACGACGGGATT
B17: GCCAUAU (DNA:RNA)
RNA: B1 RNA with U27C, C28A, G29U, C31U
DNA 1: CAATCTGAATTCCGGTCTCCC
DNA 2: TGGTGGCTACGACGGGATT
B18: CAUACCA (DNA:RNA)
RNA: B9 RNA with G26A, A27U, G28A, A29C, G30C, G31A
DNA 1: CAATCTGAATTCCGGTCTCCC
DNA 2: TGGTGGCTACGACGGGATT
B19: UACAUGG (DNA:RNA)
RNA: B9 RNA with C25U, G26A, A27C, G28A, A29U
DNA 1: CAATCTGAATTCCGGTCTCCC
DNA 2: TGGTGGCTACGACGGGATT
B20: GUUGCGG (DNA:RNA)
RNA: B9 RNA with C25G, G26U, A27U, A29C
DNA 1: CAATCTGAATTCCGGTCTCCC
DNA 2: TGGTGGCTACGACGGGATT
B21: UGAGGAA (DNA:RNA)
RNA: B9 RNA with C25U, A29G, G30A, G31A
DNA 1: CAATCTGAATTCCGGTCTCCC
DNA 2: TGGTGGCTACGACGGGATT
B22: AGCGGCG (DNA:RNA)
RNA: B9 RNA with C25A, A27C, A29G, G30C
DNA 1: CAATCTGAATTCCGGTCTCCC
DNA 2: TGGTGGCTACGACGGGATT
B23: ACGACUG (DNA:RNA)
RNA: B9 RNA with C25A, G26C, A27G, G28A, A29C, G30U
DNA 1: CAATCTGAATTCCGGTCTCCC
DNA 2: TGGTGGCTACGACGGGATT
B24: CUAUGGA (DNA:RNA)
RNA: B9 RNA with G26U, G28U, A29G, G31A
DNA 1: CAATCTGAATTCCGGTCTCCC
DNA 2: TGGTGGCTACGACGGGATT
B25: CGCUAAC (DNA:RNA)
RNA: B9 RNA with A27C, G28U, G30A, G31C
DNA 1: CAATCTGAATTCCGGTCTCCC
DNA 2: TGGTGGCTACGACGGGATT
B26: UUGGCUG (DNA:RNA)
RNA: B9 RNA with C25U, G26U, A27G, A29C, G30U
DNA 1: CAATCTGAATTCCGGTCTCCC
DNA 2: TGGTGGCTACGACGGGATT
B27: UUCACCG (DNA:RNA)
RNA: B9 RNA with C25U, G26U, A27C, G28A, A29C, G30C
DNA 1: CAATCTGAATTCCGGTCTCCC
DNA 2: TGGTGGCTACGACGGGATT
B28: GUUGCAU (DNA:RNA)
RNA: B1 RNA with C26U, C28G, G29C, C31U
DNA 1: CAATCTGAATTCCGGTCTCCC
DNA 2: TGGTGGCTACGACGGGATT
B29: AGAAUGU (DNA:RNA)
RNA: B9 RNA with C25A, G28A, A29U, G31U
DNA 1: CAATCTGAATTCCGGTCTCCC
DNA 2: TGGTGGCTACGACGGGATT
B30: CGUGUCA (DNA:RNA)
RNA: B9 RNA with A27U, A29U, G30C, G31A
DNA 1: CAATCTGAATTCCGGTCTCCC
DNA 2: TGGTGGCTACGACGGGATT
B31: AGCCGUA (DNA:RNA)
RNA: B1 RNA with G25A, C26G, U27C, A30U, C31A
DNA 1: CAATCTGAATTCCGGTCTCCC
DNA 2: TGGTGGCTACGACGGGATT

target: T1, RBFOX1 RRM RbFoxmut (Fox-RRM*); assay: EMSA; HiTS-Eq, 1 nM pool, 10 min; buffer printed only for the single-RNA assays: 10 mM Tris pH 7.5, 150 mM NaCl, 3.4 mM EDTA, 0.001% NP-40, 30 C; conditions: tags: His6 N-terminal (pET28a); label: 5' 32P
In short: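 Relative association constants, normalised to the cognate motif, were derived by comparing read counts of each RNA species with those of the control reaction. The RNA sequenced was the free fraction, separated by 8% native PAGE after a 10 min equilibration in 50 µL of 1 nM 5′-radiolabelled RNA (7 randomized nucleotides) with increasing concentrations of purified wild-type or mutant RbFox RRM.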

| Binder | binding signal |
| --- | --- |
| B1 | 0.0915 KA relative to UGCAUGU |
| B2 | 0.0555 KA relative to UGCAUGU |
| B3 | 0.123 KA relative to UGCAUGU |
| B4 | 0.0884 KA relative to UGCAUGU |
| B5 | 0.0846 KA relative to UGCAUGU |
| B6 | 0.194 KA relative to UGCAUGU |
| B7 | 0.104 KA relative to UGCAUGU |
| B8 | 0.0761 KA relative to UGCAUGU |
| B9 | 0.0724 KA relative to UGCAUGU |
| B10 | 0.1 KA relative to UGCAUGU |
| B11 | 0.154 KA relative to UGCAUGU |
| B12 | 0.0869 KA relative to UGCAUGU |
| B13 | 0.0581 KA relative to UGCAUGU |
| B14 | 0.123 KA relative to UGCAUGU |
| B15 | 0.0697 KA relative to UGCAUGU |
| B16 | 0.0605 KA relative to UGCAUGU |

| Binder | binding signal |
| --- | --- |
| B17 | 0.0922 KA relative to UGCAUGU |
| B18 | 0.106 KA relative to UGCAUGU |
| B19 | 0.0424 KA relative to UGCAUGU |
| B20 | 0.0792 KA relative to UGCAUGU |
| B21 | 0.0904 KA relative to UGCAUGU |
| B22 | 0.138 KA relative to UGCAUGU |
| B23 | 0.154 KA relative to UGCAUGU |
| B24 | 0.0791 KA relative to UGCAUGU |
| B25 | 0.111 KA relative to UGCAUGU |
| B26 | 0.435 KA relative to UGCAUGU |
| B27 | 0.112 KA relative to UGCAUGU |
| B28 | 0.139 KA relative to UGCAUGU |
| B29 | 0.798 KA relative to UGCAUGU |
| B30 | 0.121 KA relative to UGCAUGU |
| B31 | 0.0985 KA relative to UGCAUGU |

Source: paper PMC9911399, “Two distinct binding modes provide the RNA-binding protein RbFox with extraordinary sequence specificity”
